Source: paper PMC4251979
Numbering of substitutions follows the chain as printed. These are yes or no findings as the source states them, for the method shown. Binding seen in cells or lysates may run through a third protein. Some binding calls cover weakened binding; strength is not graded here. Sequences can lack the tags named with a protein.

By UniProt entry, the sequences of proteins in these tests, tags left out.
UniProt Q8IY92: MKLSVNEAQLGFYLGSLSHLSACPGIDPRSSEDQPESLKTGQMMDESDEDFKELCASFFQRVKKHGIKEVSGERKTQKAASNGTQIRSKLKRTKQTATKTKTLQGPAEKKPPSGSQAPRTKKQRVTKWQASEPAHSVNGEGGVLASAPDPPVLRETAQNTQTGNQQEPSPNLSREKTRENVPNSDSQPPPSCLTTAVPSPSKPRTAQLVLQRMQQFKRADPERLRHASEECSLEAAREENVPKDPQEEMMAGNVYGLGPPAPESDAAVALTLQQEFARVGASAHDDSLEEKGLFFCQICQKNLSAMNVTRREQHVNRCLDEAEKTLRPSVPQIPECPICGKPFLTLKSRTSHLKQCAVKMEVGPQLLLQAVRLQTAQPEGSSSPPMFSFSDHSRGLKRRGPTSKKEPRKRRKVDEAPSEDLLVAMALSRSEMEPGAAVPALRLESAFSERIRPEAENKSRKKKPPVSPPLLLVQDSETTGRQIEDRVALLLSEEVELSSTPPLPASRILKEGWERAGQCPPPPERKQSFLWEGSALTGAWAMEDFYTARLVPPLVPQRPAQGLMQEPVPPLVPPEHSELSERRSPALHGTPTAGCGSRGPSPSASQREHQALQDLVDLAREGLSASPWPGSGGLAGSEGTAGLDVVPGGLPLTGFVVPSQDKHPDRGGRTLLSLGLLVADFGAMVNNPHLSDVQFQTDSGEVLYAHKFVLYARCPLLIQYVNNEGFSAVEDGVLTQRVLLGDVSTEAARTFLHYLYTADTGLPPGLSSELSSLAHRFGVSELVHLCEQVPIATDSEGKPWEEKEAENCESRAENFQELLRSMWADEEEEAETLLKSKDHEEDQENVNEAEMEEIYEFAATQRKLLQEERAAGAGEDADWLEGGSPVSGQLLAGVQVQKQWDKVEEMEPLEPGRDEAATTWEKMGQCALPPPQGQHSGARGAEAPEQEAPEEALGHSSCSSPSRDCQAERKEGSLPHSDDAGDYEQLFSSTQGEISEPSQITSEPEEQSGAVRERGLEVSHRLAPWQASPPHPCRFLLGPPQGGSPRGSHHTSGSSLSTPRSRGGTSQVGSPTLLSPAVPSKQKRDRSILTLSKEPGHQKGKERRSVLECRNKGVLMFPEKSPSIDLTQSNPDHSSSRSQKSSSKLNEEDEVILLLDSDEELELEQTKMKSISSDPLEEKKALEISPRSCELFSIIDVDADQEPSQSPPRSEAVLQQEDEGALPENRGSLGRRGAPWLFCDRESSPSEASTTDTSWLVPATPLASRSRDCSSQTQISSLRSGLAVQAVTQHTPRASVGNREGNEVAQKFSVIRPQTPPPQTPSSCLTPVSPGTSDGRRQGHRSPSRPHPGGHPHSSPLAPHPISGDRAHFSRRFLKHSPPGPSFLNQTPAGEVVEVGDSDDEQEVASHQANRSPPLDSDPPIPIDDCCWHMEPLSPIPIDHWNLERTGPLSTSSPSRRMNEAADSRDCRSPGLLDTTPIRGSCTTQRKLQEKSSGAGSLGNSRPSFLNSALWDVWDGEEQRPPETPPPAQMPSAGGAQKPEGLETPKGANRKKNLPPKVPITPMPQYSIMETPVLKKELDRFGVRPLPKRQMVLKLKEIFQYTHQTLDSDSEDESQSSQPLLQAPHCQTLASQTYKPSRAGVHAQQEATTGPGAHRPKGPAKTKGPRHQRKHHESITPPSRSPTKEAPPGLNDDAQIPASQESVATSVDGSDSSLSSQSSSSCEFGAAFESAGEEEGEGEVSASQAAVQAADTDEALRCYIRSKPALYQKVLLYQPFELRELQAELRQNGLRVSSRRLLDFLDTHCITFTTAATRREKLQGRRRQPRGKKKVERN

Columns and labels:
Assay in all cases: co-IP; HEK293 cells transiently transfected with FLAG-MUS81 (wild type or mutants); extracts immunoprecipitated with anti-FLAG (FLAG-M2 agarose beads), western blotting
[1] = target: T1, FLAG-MUS81 W24A L25A (human) (UniProt Q96NY9)
T1 sequence: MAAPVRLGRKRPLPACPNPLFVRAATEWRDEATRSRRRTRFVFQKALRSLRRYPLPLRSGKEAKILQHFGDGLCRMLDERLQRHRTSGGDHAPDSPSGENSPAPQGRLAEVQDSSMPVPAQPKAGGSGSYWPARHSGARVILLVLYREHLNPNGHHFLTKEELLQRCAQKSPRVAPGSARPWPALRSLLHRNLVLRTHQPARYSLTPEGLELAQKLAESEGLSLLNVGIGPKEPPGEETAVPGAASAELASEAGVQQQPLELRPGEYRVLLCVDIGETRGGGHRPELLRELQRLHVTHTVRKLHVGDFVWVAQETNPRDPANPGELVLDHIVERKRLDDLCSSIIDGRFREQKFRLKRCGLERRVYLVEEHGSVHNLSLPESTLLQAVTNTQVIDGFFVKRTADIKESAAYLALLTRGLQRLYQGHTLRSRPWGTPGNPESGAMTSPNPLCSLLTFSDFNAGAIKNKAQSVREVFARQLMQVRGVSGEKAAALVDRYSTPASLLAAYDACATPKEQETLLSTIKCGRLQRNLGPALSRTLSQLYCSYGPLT

[2] = target: T2, full-length FLAG-MUS81 L47P (human) (UniProt Q96NY9)
T2 sequence: T1 sequence with A24W, A25L, L47P

[3] = target: T3, FLAG-MUS81 L66A Q67A (human) (UniProt Q96NY9)
T3 sequence: T1 sequence with A24W, A25L, L66A, Q67A

[4] = target: T4, FLAG-MUS81 wild-type (human) (UniProt Q96NY9)
T4 sequence: T1 sequence with A24W, A25L

endogenous SLX4 (human cells) (from UniProt Q8IY92 1-1834)
binding [1]: no binding | binding [2]: no binding | binding [3]: no binding | binding [4]: binds
